# The other results are listed elsewhere or left out. At the low end of the ranking the order means little.
# Biological target: SIX1 homeodomain (reference allele) (UniProt Q15475)
# Experiment: universal protein binding microarray
# Conditions: Universal all-10-mer PBM (8x60K, AMADID 030236), 300 nM GST-tagged protein, Alexa Fluor 488 anti-GST; buffer, salt, pH and temperature not stated; high values mean tight binding; most listed sequences are background and not binding sites; double strand, one strand shown
row,Sequence,binding signal [E-score]
1,ACCTGATA,0.401
2,TAACTAAA,-0.0307
3,GACCTCAA,-0.185
4,GTCTGCAA,-0.28
5,CGCGCTAA,-0.0443
6,ATAAGATG,0.108
7,AAGGAACA,-0.21
8,ACACTATG,0.0853
9,ACCCATAC,0.112
10,CATCTCCC,-0.0178
11,CTCTGCTA,-0.0534
12,ATGCCGCG,-0.0391
13,CAATTTGG,-0.206
14,CAAATTCG,0.0418
15,ACTAAAAA,-0.0718
16,CCACGTCC,-0.218
17,CTTCTAGA,0.036
18,CACCGTGG,0.118
19,AGATCCCG,0.302
20,CATCACGC,-0.158
21,AATATGGG,0.218
22,CCCGGGAG,-0.0537
23,AAAGTCAT,-0.239
24,CATTCTTC,-0.0379
25,AAACCTCA,-0.017

row,Sequence,binding signal [E-score]
1,AAAAAATA,0.0531
2,CATGCCCC,0.0549
3,ACACCTCA,0.24
4,GTGCAGCA,-0.211
5,ACTCGGAA,-0.0624
6,CTGAAATC,-0.0654
7,ATGATAGG,0.387
8,GGATAGCA,0.241
9,AAAAGAGC,-0.199
10,CAGCAACG,-0.186
11,AGCTAGCG,-0.246
12,CGAACCAC,-0.17
13,ATGCGCTA,-0.0891
14,ACACCATC,0.312
15,ATCGATAA,0.0591
16,AACTACTG,-0.239
17,AAGTCGTC,-0.0812
18,AGCTAGAC,-0.2
19,TAGTTGAA,0.0609
20,AACAACTA,-0.175
21,GCGTCGAA,-0.0235
22,GGTTGTAA,-4.5e-05
23,AAAAAGTA,-0.0612
24,GGTACGGA,-0.00577
25,GAACTTAA,-0.194

row,Sequence,binding signal [E-score]
1,AGGGCCTC,-0.226
2,GGTACCTA,-0.0453
3,TTATACAA,0.14
4,AAGAGTGG,-0.179
5,GACTAGCA,-0.144
6,AGACCACG,-0.195
7,ATCGTAGG,0.16
8,GACAGCGA,-0.235
9,GACCTTGC,-0.146
10,AGAATGAC,-0.0857
11,ATTACCAC,-0.0185
12,ATCCCCTA,0.374
13,CAGGCAGG,-0.0188
14,AGACCCGA,0.196
15,GCATCTCC,-0.0278
16,AAGGAGGC,-0.158
17,AGGTTATG,-0.0404
18,GGAAGTAA,-0.077
19,AGTTGCCA,-0.113
20,AGTCGGAA,-0.128
21,AGAACGTG,-0.225
22,GCGGTGCA,-0.136
23,GCGTTATA,0.0795
24,ACAATAGC,-0.0366
25,CTACGATC,0.233

row,Sequence,binding signal [E-score]
1,ATATAGGC,0.123
2,ACAGGCTA,0.127
3,CTATCGCA,0.186
4,ACGTGACT,-0.158
5,ATCCGCCC,0.373
6,AGTCGGAC,-0.315
7,ACTTTAAC,-0.207
8,CGTTTTCC,-0.242
9,TAACCTCA,-0.0879
10,CCAAAGTA,-0.0318
11,ACATGAGC,0.00468
12,CCTGCTCC,-0.0184
13,CGATCCTA,0.299
14,CCTTAGTA,-0.0275
15,GTTCATTA,0.0318
16,GAGTAGCA,-0.0232
17,ATTACATG,0.124
18,AAGGCGCT,-0.198
19,AGCGTCGA,-0.1
20,GAGGCTAA,-0.228
21,AAGATAGG,0.0472
22,TATCGGCA,0.244
23,AGAATGCC,-0.146
24,CTTTCCTC,-0.263
25,CCACAGTC,-0.193

row,Sequence,binding signal [E-score]
1,GAACTTTA,-0.245
2,CTACGTAA,-0.126
3,AGTTGAGA,0.00191
4,CCGAGATA,0.287
5,GCAAGCCA,-0.103
6,TGTGACAA,-0.162
7,ACGAAACG,-0.149
8,AGGCATCA,0.0478
9,CCAACACC,0.291
10,AGACAACA,-0.172
11,GTACTATA,0.165
12,ACACTCGT,-0.0555
13,ACCTTGCG,-0.0646
14,ACAGTACC,-0.105
15,CTATCAGA,0.271
16,ACGCACCC,-0.0669
17,CCACACAC,0.105
18,CTAACAAA,-0.136
19,ATCCGGAA,0.295
20,GTCACAAA,-0.202
21,GAACGATC,0.236
22,CCCGAACG,-0.0842
23,ATGACCAA,0.0234
24,CATCTTGG,-0.0813
25,ACCGAGAA,0.00744

row,Sequence,binding signal [E-score]
1,AGACGGCA,0.197
2,ACTACATA,-0.104
3,CTATGGTC,-0.0624
4,CCGAGGAG,0.134
5,GAGAATCC,0.0755
6,AGAAAACA,-0.157
7,AGAGATCG,0.255
8,GACCTCAC,-0.032
9,CGAGTTCC,-0.101
10,ACTATGTA,-0.0247
11,AATCGTCG,-0.17
12,GTTTCGTA,0.124
13,GACATCGC,-0.233
14,CCATCGCA,-0.177
15,GTTATTAA,-0.0714
16,CCCCCGTA,0.189
17,CGGACTGC,-0.211
18,CTTACGAC,-0.19
19,AAGATTTG,-0.271
20,CCGCTCCG,0.00741
21,CCATTGCC,-0.172
22,CTATTAGC,0.0693
23,GCATAGAC,-0.033
24,ATAATTAA,0.0287
25,ATAGTATC,0.426

row,Sequence,binding signal [E-score]
1,TCGACCGA,-0.034
2,CTATCATC,0.34
3,AGGTAGGG,-0.0104
4,CCTGTCCA,-0.215
5,CAGCTCAG,-0.0188
6,ACCCTAGT,-0.0472
7,GGGCACAC,0.136
8,GCCGTCTA,0.132
9,TATTCTAA,0.13
10,CGCGATTA,0.0604
11,ATACCGAA,0.329
12,CGGTATAG,0.216
13,CAGTAAGG,-0.107
14,CATGCAGG,-0.0642
15,ACCCGCCG,0.212
16,GAGGATCA,0.369
17,CAAAGGGG,0.124
18,ATCACATC,0.284
19,TCTTAACA,-0.11
20,AAATAGAC,0.139
21,ATTAGGGA,0.0337
22,TATCGCAA,0.33
23,TCTATCCA,0.101
24,AACAGGTT,-0.154
25,TAAAAGTA,-0.0867

row,Sequence,binding signal [E-score]
1,AAGAGGCT,-0.27
2,ACTTCCAG,-0.185
3,CCTAGCGA,-0.205
4,ATATAGAC,0.116
5,AGTAATAT,0.236
6,CCACGAGG,-0.129
7,ACACTAGT,0.128
8,ACACCCAC,0.221
9,GGGCCTTA,-0.269
10,AAGCCAAA,-0.268
11,CGCTCTAA,-0.14
12,AGATTGCT,0.141
13,CTTGGATA,0.236
14,GTTGAACA,-0.138
15,AACTCGCT,-0.0391
16,GTATCCAC,0.395
17,GGACCTTA,-0.122
18,ACTACACC,0.336
19,AACAGCCG,-0.172
20,CCAGAACG,-0.0567
21,AAAATCAT,0.0422
22,CAAGATGG,-0.136
23,AAAGGATA,0.334
24,ATCGAGCA,-0.00513
25,AACAAGGT,-0.122

row,Sequence,binding signal [E-score]
1,AAAACGGC,-0.135
2,AGCTTGTG,-0.0614
3,CTATTGGA,-0.0185
4,TCGGTAGA,0.0154
5,ATAATACG,0.385
6,CATGCTTC,-0.11
7,AAGTTTTA,-0.178
8,ACGTATCC,0.377
9,AAGTGAGG,-0.144
10,GGGGCCTA,-0.0563
11,CGTCCCCC,-0.144
12,GGTGCTCA,-0.109
13,GGCCAAAC,-0.226
14,GCCTTGTA,-0.202
15,ATATTTTA,0.0479
16,ACCGACCC,0.0779
17,CACATGAA,0.00571
18,GCGCTACA,-0.201
19,CACGACCC,0.0737

# Source: PMC10668032
